Laboratory results from the supplement of paper PMC10126150.
Values marked as one replicate rest on one cluster of the flow cell; about a third of the high ones do not repeat.

Tested on: ATP
Assay: switch fluorescence ratio, 500 uM ATP over buffer (Cy3 cluster intensity, sum of 5 cycles each) (fold (ratio)); higher = stronger signal-on switching upon ATP binding; sequences stand for … in TCGTCGGCAGCGTCAGATGTGTATAAGAGACAGTTTTTTTTTTTTTTTTTTTTTTTTT…TC
Details: aptamer strand: ATP DNA aptamer (quencher-CACCTGGGGGAGTATTGCGGAGGAAGG + anchor), 100 nM annealed; ATP concentration: 500 uM; one replicate
How it was run: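 Values give the fluorescence ratio for each switch-domain sequence, averaged from per-cluster ratios of summed target-cycle to summed buffer-cycle Cy3 intensity. The Cy3-labelled switching-strand clusters sat on a modified Illumina MiSeq flow-cell, were annealed to 100 nM quencher-labelled ATP aptamer, and were imaged in selection buffer, then after 15 min with 500 uM ATP at 22 °C. Five cycles ran with NaOH stripping and re-annealing between them, and clusters outside 100-1000 RFU were excluded.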
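Further: ATP exposure 15 min at 22 °C before imaging.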

**Q.** With ATGGTCTTAA as the sequence, how does the switch fluorescence ratio read?
**A.** 0.997

**Q.** For ATGGTTATG, which switch fluorescence ratio is on record?
**A.** 0.934

**Q.** With ATGGTTCATC as the sequence, how does the switch fluorescence ratio read?
**A.** 1.04

**Q.** For ATGGTTGGTG, which switch fluorescence ratio is on record?
**A.** 1.13

**Q.** For ATGGTTTTAC, which switch fluorescence ratio is on record?
**A.** 0.99

**Q.** With ATGTAACAGT as the sequence, how does the switch fluorescence ratio read?
**A.** 1.01

**Q.** Which switch fluorescence ratio does the source give for ATGTAAGAGA here?
**A.** 1.02

**Q.** How did the switch fluorescence ratio turn out when ATGTAAGAGC was run?
**A.** 0.961

**Q.** For ATGTACCTCG, which switch fluorescence ratio is on record?
**A.** 1.05

**Q.** ATGTACTCCG was tested. Which switch fluorescence ratio did it give?
**A.** 1.13

**Q.** How did the switch fluorescence ratio turn out when ATGTAGAAGA was run?
**A.** 0.995

**Q.** Which switch fluorescence ratio does the source give for ATGTAGCTAA here?
**A.** 1.17

**Q.** ATGTAGTGG was tested. Which switch fluorescence ratio did it give?
**A.** 0.976

**Q.** With ATGTAGTGTT as the sequence, how does the switch fluorescence ratio read?
**A.** 1.01

**Q.** ATGTCACGCA was tested. Which switch fluorescence ratio did it give?
**A.** 1.07

**Q.** For ATGTCAGGTC, which switch fluorescence ratio is on record?
**A.** 0.985

**Q.** Which switch fluorescence ratio does the source give for ATGTCGAAAT here?
**A.** 1

**Q.** With ATGTCGGGAT as the sequence, how does the switch fluorescence ratio read?
**A.** 1

**Q.** Which switch fluorescence ratio does the source give for ATGTCTACGT here?
**A.** 1.02

**Q.** How did the switch fluorescence ratio turn out when ATGTCTGGCG was run?
**A.** 0.99

**Q.** ATGTCTTAGG was tested. Which switch fluorescence ratio did it give?
**A.** 1.01

**Q.** Which switch fluorescence ratio does the source give for ATGTGAATTC here?
**A.** 0.992

**Q.** How did the switch fluorescence ratio turn out when ATGTGAGGAG was run?
**A.** 1.05

**Q.** Which switch fluorescence ratio does the source give for ATGTGATATT here?
**A.** 0.992

**Q.** How did the switch fluorescence ratio turn out when ATGTGATCCC was run?
**A.** 1.02

**Q.** Which switch fluorescence ratio does the source give for ATGTGCAAGA here?
**A.** 1.07

**Q.** Which switch fluorescence ratio does the source give for ATGTGCGG here?
**A.** 0.99

**Q.** ATGTGGAGTT was tested. Which switch fluorescence ratio did it give?
**A.** 0.963

**Q.** ATGTGGTT was tested. Which switch fluorescence ratio did it give?
**A.** 1

**Q.** With ATGTGTAGGT as the sequence, how does the switch fluorescence ratio read?
**A.** 1.02

**Q.** How did the switch fluorescence ratio turn out when ATGTTAAGTT was run?
**A.** 0.977

**Q.** For ATGTTAATTA, which switch fluorescence ratio is on record?
**A.** 0.982

**Q.** Which switch fluorescence ratio does the source give for ATGTTAGCAT here?
**A.** 1.02

**Q.** With ATGTTATAGG as the sequence, how does the switch fluorescence ratio read?
**A.** 0.985

**Q.** Which switch fluorescence ratio does the source give for ATGTTCCGT here?
**A.** 1.03

**Q.** For ATGTTGGAGC, which switch fluorescence ratio is on record?
**A.** 0.994

**Q.** ATGTTGGCCT was tested. Which switch fluorescence ratio did it give?
**A.** 0.999

**Q.** How did the switch fluorescence ratio turn out when ATGTTGTAAT was run?
**A.** 0.986

**Q.** How did the switch fluorescence ratio turn out when ATTAAATCAA was run?
**A.** 1.01

**Q.** With ATTAACAGAA as the sequence, how does the switch fluorescence ratio read?
**A.** 1.03

**Q.** How did the switch fluorescence ratio turn out when ATTAACGATG was run?
**A.** 1

**Q.** Which switch fluorescence ratio does the source give for ATTAAGAGCA here?
**A.** 1.03

**Q.** How did the switch fluorescence ratio turn out when ATTAAGCCGT was run?
**A.** 1.1

**Q.** ATTAAGGGCG was tested. Which switch fluorescence ratio did it give?
**A.** 0.96

**Q.** With ATTAAGTA as the sequence, how does the switch fluorescence ratio read?
**A.** 0.95

**Q.** For ATTAATCGTT, which switch fluorescence ratio is on record?
**A.** 0.986

**Q.** ATTAATCTTA was tested. Which switch fluorescence ratio did it give?
**A.** 0.962

**Q.** For ATTAATGGTT, which switch fluorescence ratio is on record?
**A.** 0.947

**Q.** Which switch fluorescence ratio does the source give for ATTACAAGCC here?
**A.** 1.01

**Q.** How did the switch fluorescence ratio turn out when ATTACAAGTT was run?
**A.** 0.988

**Q.** How did the switch fluorescence ratio turn out when ATTACAATGT was run?
**A.** 1.03

**Q.** For ATTACACAGA, which switch fluorescence ratio is on record?
**A.** 1.03

**Q.** ATTACAGCGT was tested. Which switch fluorescence ratio did it give?
**A.** 1.05

**Q.** With ATTACAGCTG as the sequence, how does the switch fluorescence ratio read?
**A.** 0.992

**Q.** ATTACATACT was tested. Which switch fluorescence ratio did it give?
**A.** 1.41

**Q.** How did the switch fluorescence ratio turn out when ATTACCCAAG was run?
**A.** 1.04

**Q.** For ATTACTGGTA, which switch fluorescence ratio is on record?
**A.** 1

**Q.** With ATTAGAAATT as the sequence, how does the switch fluorescence ratio read?
**A.** 1.02

**Q.** For ATTAGAGAT, which switch fluorescence ratio is on record?
**A.** 1.03

**Q.** ATTAGATAGA was tested. Which switch fluorescence ratio did it give?
**A.** 1

**Q.** With ATTAGCAACT as the sequence, how does the switch fluorescence ratio read?
**A.** 1.04

**Q.** Which switch fluorescence ratio does the source give for ATTAGCCA here?
**A.** 0.936

**Q.** ATTAGCCCAG was tested. Which switch fluorescence ratio did it give?
**A.** 1.01

**Q.** ATTAGCGGAA was tested. Which switch fluorescence ratio did it give?
**A.** 0.991

**Q.** For ATTAGCGGAC, which switch fluorescence ratio is on record?
**A.** 1.22

**Q.** For ATTAGCTCTG, which switch fluorescence ratio is on record?
**A.** 0.989

**Q.** With ATTAGGTCTC as the sequence, how does the switch fluorescence ratio read?
**A.** 0.994

**Q.** For ATTAGTCAGT, which switch fluorescence ratio is on record?
**A.** 1.02

**Q.** Which switch fluorescence ratio does the source give for ATTATACTCG here?
**A.** 1.04

**Q.** Which switch fluorescence ratio does the source give for ATTATACTGC here?
**A.** 0.998

**Q.** ATTATAGTTC was tested. Which switch fluorescence ratio did it give?
**A.** 1

**Q.** With ATTATATTAG as the sequence, how does the switch fluorescence ratio read?
**A.** 1.05

**Q.** How did the switch fluorescence ratio turn out when ATTATCAATG was run?
**A.** 0.967

**Q.** How did the switch fluorescence ratio turn out when ATTATCGTTT was run?
**A.** 0.953

**Q.** For ATTATGAAG, which switch fluorescence ratio is on record?
**A.** 1.03

**Q.** For ATTATGTTA, which switch fluorescence ratio is on record?
**A.** 1.05

**Q.** How did the switch fluorescence ratio turn out when ATTATTATAC was run?
**A.** 1.05

**Q.** For ATTATTCAGC, which switch fluorescence ratio is on record?
**A.** 1.01

**Q.** How did the switch fluorescence ratio turn out when ATTCAATATG was run?
**A.** 1.01

**Q.** ATTCAATTCT was tested. Which switch fluorescence ratio did it give?
**A.** 0.953

**Q.** Which switch fluorescence ratio does the source give for ATTCACACTG here?
**A.** 1.07

**Q.** For ATTCAGACTT, which switch fluorescence ratio is on record?
**A.** 1.01

**Q.** ATTCAGGAGG was tested. Which switch fluorescence ratio did it give?
**A.** 0.996

**Q.** For ATTCAGTGT, which switch fluorescence ratio is on record?
**A.** 1.01

**Q.** For ATTCATACAC, which switch fluorescence ratio is on record?
**A.** 1.02

**Q.** With ATTCATAGTG as the sequence, how does the switch fluorescence ratio read?
**A.** 1.01

**Q.** How did the switch fluorescence ratio turn out when ATTCATATTC was run?
**A.** 1.03

**Q.** Which switch fluorescence ratio does the source give for ATTCATGTGC here?
**A.** 1.07

**Q.** ATTCATTGAT was tested. Which switch fluorescence ratio did it give?
**A.** 1.01

**Q.** For ATTCCTAGCG, which switch fluorescence ratio is on record?
**A.** 1.08

**Q.** ATTCCTTACC was tested. Which switch fluorescence ratio did it give?
**A.** 1.23

**Q.** Which switch fluorescence ratio does the source give for ATTCGATGTA here?
**A.** 0.974

**Q.** Which switch fluorescence ratio does the source give for ATTCGCCCAG here?
**A.** 1.62

**Q.** How did the switch fluorescence ratio turn out when ATTCGCCGT was run?
**A.** 1.07

**Q.** ATTCGGACGC was tested. Which switch fluorescence ratio did it give?
**A.** 1.66

**Q.** ATTCGGATAG was tested. Which switch fluorescence ratio did it give?
**A.** 1.07

**Q.** With ATTCGGGGCA as the sequence, how does the switch fluorescence ratio read?
**A.** 1.01

**Q.** For ATTCGGGGTC, which switch fluorescence ratio is on record?
**A.** 0.965

**Q.** With ATTCGGTGTC as the sequence, how does the switch fluorescence ratio read?
**A.** 0.95

**Q.** For ATTCGTCCGT, which switch fluorescence ratio is on record?
**A.** 1.14

**Q.** How did the switch fluorescence ratio turn out when ATTCGTTACA was run?
**A.** 1.04
